B1: LC3A_3_1757 (protein)
chain: GEELIEEARRLLEEHGASEETIEAVERALRALLERGLEEQARRLVEALRRAERLDDELLLAFAEELLALVESHTGSREELAARVEEELRAFEAGAEIEEL
B2: LC3A_62_2057 (protein)
chain: MVKLKVDIIISTNTLEAAKEAYEKMKKFLEELEKKHPGVKSKVSLNEETNTVTVDVIIEAETREEALAIAKEIEDHAISIVDELDKKGVAAIVSIDREEL
B3: LC3A_free_46_2328 (protein)
chain: VKLNIDIDLLHEDKEKMEKAVKEIEEKIKEIAEKYNAKVKIEVEISKDPDGSYFAKINIEIEAETLEKAQEIKTEIIDSIEEIADKYGISYIISYEIEEL
B4: LC3A_3_1733 (protein)
chain: MEEILEEARKRLEELGFSEEVIEAALETIKALLEKGLEEEVKLLLETLEKIKDADEELILAYLKEIKELVETSKESKEELRKKVRELIKTLENDAEIEEL
B5: LC3A_13_338 (protein)
chain: TVKLEVETPEELREKGTAALEAHPGETIEITVTVKDFEEADAIAEVLSELMKLAAEKGNKINITIKGKRDVVTYLAVLVGSDAYELINKLDITITEEVVG
B6: LC3A_147_500 (protein)
chain: YKVEVDIDLLTKNDKELVEKLVKEIEEELKKKGKKVKVEVEFEKVDENTTYAHITITVEVETKEEAEETANLILDMIDEFIEANKDKILGSLISVSIEKK
B7: LC3A_132_272 (protein)
chain: GEEKAEKIKKELEKLIKELEENIDDLEKVKKLVKEIEELLKKAEKELSPELVAEVADHVADLADKVAEKYEAAGKEEEALLVENLSMYADGIRIEAELKL
B8: LC3A_3_1643 (protein)
chain: MEEEVERAEKLLKEAGASEETLEAFRETAELLKEKGFEEALKTLIEEVEKLKDLPSELLLDMLEEVLYLLKNEDLNEEEVIEKIKEIAKITLNESEIIEL

These results are taken from the supplement of paper PMC12632987.

In all, about 2,300 sequences were measured (“median log2 fold change of GCK-ALFA target abundance (FLAG IP / Myc IP barcode read proportion)”: median about 0.095, lowest 2% from about -0.47 on). The list shows a part of the results.

This assay has as its target MAP1LC3A, Q9H492. Kind of assay: median log2 fold change of GCK-ALFA target abundance (FLAG IP / Myc IP barcode read proportion) (log2 ratio); each designed protein is fused to an ALFA-tag nanobody in HEK293 cells to bring the named protein to FLAG-tagged glucokinase (GCK); Myc marks an untargeted standard; higher = target protein stabilised (more abundant). Particulars: target protein: 3xFLAG-MCP-GCK-ALFA reporter; HEK293 landing pad (RPLP). As for the experimental part:
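LABEL-seq trans screen in HEK293 landing-pad cells. Each de novo designed 100-aa effector handle, binding the indicated effector (E3 ligase, DUB or autophagy protein), is fused to a constant NbALFA target handle and induced with 2 ug/mL doxycycline. A FLAG-MCP-GCK-ALFA target and a Myc-MCP standard reporter were transfected, and after 48 h circRNA barcodes were recovered by anti-FLAG and anti-Myc IP and sequenced. The value is the median across barcodes (at least 3 per design) of log2(FLAG/Myc read-proportion ratio), with the two transfection replicates pooled. Negative values mean degradation and positive values mean stabilisation of the target.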
As for B1, the “median log2 fold change” value came out at 0.287.
For B2 the value was 0.0926.
For B3 the value was 0.163.
As to B4, the “median log2 fold change” value was 0.278.
On to B5, for which the “median log2 fold change” value is 0.0888.
For the molecule B6, the “median log2 fold change” value is -0.396.
In the case of B7, the “median log2 fold change” value was determined as 0.157.
As for B8, the “median log2 fold change” value is 0.121.
